Some of the results follow. Single values are uncertain, as repeats are few or missing.
Columns and labels:
Assay in all cases: cell count relative to DMSO control; melanoma cells; higher = more viable cells
Details in all cases: library dose: low library concentration; 72 h
[1] = tested on: WM115
[2] = tested on: WM1716
[3] = tested on: WM1745
[4] = tested on: WM3526
[5] = tested on: WM3619
[6] = tested on: WM451Lu
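Further: cell number obtained by counting DAPI-stained nuclei in high-throughput microscope images with image analysis software, screen run in 1,536-well plates.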

SMILES	cell count [1] [%]	cell count [2] [%]	cell count [3] [%]	cell count [4] [%]	cell count [5] [%]	cell count [6] [%]
O=C(/C=C/c1cccnc1)NCCCCC1CCN(C(=O)c2ccccc2)CC1 + CC(C)C[C@H](NC(=O)[C@H](Cc1ccccc1)NC(=O)c1cnccn1)B(O)O [Bortezomib] (first compound 0.01 µM, partner dose 0.001 µM)	91	69.2	96.2	85.8	52.8	90.7
O=C(/C=C/c1cccnc1)NCCCCC1CCN(C(=O)c2ccccc2)CC1 + CO[C@@H]1[C@H](N(C)C(=O)c2ccccc2)C[C@H]2O[C@]1(C)n1c3ccccc3c3c4c(c5c6ccccc6n2c5c31)C(=O)NC4 [Midostaurin] (first compound 0.01 µM, partner dose 0.08 µM)	69	54.9	80.5	91	62.5	103
O=C(/C=C/c1cccnc1)NCCCCC1CCN(C(=O)c2ccccc2)CC1 + Cn1nnc2c(C(N)=O)ncn2c1=O [temozolomide] (first compound 0.01 µM, partner dose 2 µM)	103	94.9	103	110	88.5	109
Cc1ccc(Nc2nccc(N(C)c3ccc4c(C)n(C)nc4c3)n2)cc1S(N)(=O)=O [Pazopanib] + CN(c1ncccc1CNc1nc(Nc2ccc3c(c2)CC(=O)N3)ncc1C(F)(F)F)S(C)(=O)=O [PF562271] (first compound 0.4 µM, partner dose 0.08 µM)	71.6	74.5	86.1	109	89.3	82.5
CC1(C)CCC(c2ccc(Cl)cc2)=C(CN2CCN(c3ccc(C(=O)NS(=O)(=O)c4ccc(N[C@H](CCN5CCOCC5)CSc5ccccc5)c(S(=O)(=O)C(F)(F)F)c4)cc3)CC2)C1 + C=C(c1ccc(C(=O)O)cc1)c1cc2c(cc1C)C(C)(C)CCC2(C)C [Bexarotene] (first compound 0.4 µM, partner dose 2 µM)	86.1	62.6	20.3	89.5	60.6	74.2
Cc1ccc(Nc2nccc(N(C)c3ccc4c(C)n(C)nc4c3)n2)cc1S(N)(=O)=O [Pazopanib] + NC(=O)Nc1cc(-c2cccc(F)c2)sc1C(=O)N[C@H]1CCCNC1 [AZD7762] (first compound 0.4 µM, partner dose 0.02 µM)	103	93.6	69.1	84.2	53.3	116
O=C(/C=C/c1cccnc1)NCCCCC1CCN(C(=O)c2ccccc2)CC1 + Cn1cncc1[C@@](N)(c1ccc(Cl)cc1)c1ccc2c(c1)c(-c1cccc(Cl)c1)cc(=O)n2C [tipifarnib] (first compound 0.01 µM, partner dose 0.01 µM)	74.4	76.6	106	86.6	87.1	97
CC1(C)CCC(c2ccc(Cl)cc2)=C(CN2CCN(c3ccc(C(=O)NS(=O)(=O)c4ccc(N[C@H](CCN5CCOCC5)CSc5ccccc5)c(S(=O)(=O)C(F)(F)F)c4)cc3)CC2)C1 + COc1ccc(C2=N[C@@H](c3ccc(Cl)cc3)[C@@H](c3ccc(Cl)cc3)N2C(=O)N2CCNC(=O)C2)c(OC(C)C)c1 [Nutlin-3] (first compound 0.4 µM, partner dose 0.1 µM)	78	71.7	10.9	96	86.6	65.3
O=C(/C=C/c1cccnc1)NCCCCC1CCN(C(=O)c2ccccc2)CC1 + CC1(C)NC(=O)N(c2ccc([N+](=O)[O-])c(C(F)(F)F)c2)C1=O [nilutamide] (first compound 0.01 µM, partner dose 1 µM)	101	106	92.3	67.9	94.6	118
CC1(C)CCC(c2ccc(Cl)cc2)=C(CN2CCN(c3ccc(C(=O)NS(=O)(=O)c4ccc(N[C@H](CCN5CCOCC5)CSc5ccccc5)c(S(=O)(=O)C(F)(F)F)c4)cc3)CC2)C1 + c1cc(-c2cnn3cc(-c4ccc(OCCN5CCCCC5)cc4)cnc23)ccn1 [Dorsomorphin] (first compound 0.4 µM, partner dose 0.4 µM)	81.5	74.5	10.7	82.7	88	82.8
CC1(C)CCC(c2ccc(Cl)cc2)=C(CN2CCN(c3ccc(C(=O)NS(=O)(=O)c4ccc(N[C@H](CCN5CCOCC5)CSc5ccccc5)c(S(=O)(=O)C(F)(F)F)c4)cc3)CC2)C1 + C=CCNC1=C2C[C@@H](C)C[C@H](OC)[C@H](O)[C@@H](C)/C=C(\C)[C@H](OC(N)=O)[C@@H](OC)/C=C\C=C(/C)C(=O)NC(=CC1=O)C2=O [Tanespimycin] (first compound 0.4 µM, partner dose 0.002 µM)	77.5	74.5	11	90.9	84.1	80.3

Reference: the supplement of paper PMC4604168 (melanoma cell lines)
